Hit rate of the full screen: of about 310,000 compounds, about 2,200 (0.71%) showed an effect of 50% or more. The effect is printed as a negative number. The list shows a part of the results.
Each compound was assayed against human ether-à-go-go-related gene (hERG) potassium channel (human, UniProt Q12809) (assay: primary screen, population patch clamp on CHO cells stably expressing hERG).
Sequence of human ether-à-go-go-related gene (hERG) potassium channel (Q12809 whole entry, looked up): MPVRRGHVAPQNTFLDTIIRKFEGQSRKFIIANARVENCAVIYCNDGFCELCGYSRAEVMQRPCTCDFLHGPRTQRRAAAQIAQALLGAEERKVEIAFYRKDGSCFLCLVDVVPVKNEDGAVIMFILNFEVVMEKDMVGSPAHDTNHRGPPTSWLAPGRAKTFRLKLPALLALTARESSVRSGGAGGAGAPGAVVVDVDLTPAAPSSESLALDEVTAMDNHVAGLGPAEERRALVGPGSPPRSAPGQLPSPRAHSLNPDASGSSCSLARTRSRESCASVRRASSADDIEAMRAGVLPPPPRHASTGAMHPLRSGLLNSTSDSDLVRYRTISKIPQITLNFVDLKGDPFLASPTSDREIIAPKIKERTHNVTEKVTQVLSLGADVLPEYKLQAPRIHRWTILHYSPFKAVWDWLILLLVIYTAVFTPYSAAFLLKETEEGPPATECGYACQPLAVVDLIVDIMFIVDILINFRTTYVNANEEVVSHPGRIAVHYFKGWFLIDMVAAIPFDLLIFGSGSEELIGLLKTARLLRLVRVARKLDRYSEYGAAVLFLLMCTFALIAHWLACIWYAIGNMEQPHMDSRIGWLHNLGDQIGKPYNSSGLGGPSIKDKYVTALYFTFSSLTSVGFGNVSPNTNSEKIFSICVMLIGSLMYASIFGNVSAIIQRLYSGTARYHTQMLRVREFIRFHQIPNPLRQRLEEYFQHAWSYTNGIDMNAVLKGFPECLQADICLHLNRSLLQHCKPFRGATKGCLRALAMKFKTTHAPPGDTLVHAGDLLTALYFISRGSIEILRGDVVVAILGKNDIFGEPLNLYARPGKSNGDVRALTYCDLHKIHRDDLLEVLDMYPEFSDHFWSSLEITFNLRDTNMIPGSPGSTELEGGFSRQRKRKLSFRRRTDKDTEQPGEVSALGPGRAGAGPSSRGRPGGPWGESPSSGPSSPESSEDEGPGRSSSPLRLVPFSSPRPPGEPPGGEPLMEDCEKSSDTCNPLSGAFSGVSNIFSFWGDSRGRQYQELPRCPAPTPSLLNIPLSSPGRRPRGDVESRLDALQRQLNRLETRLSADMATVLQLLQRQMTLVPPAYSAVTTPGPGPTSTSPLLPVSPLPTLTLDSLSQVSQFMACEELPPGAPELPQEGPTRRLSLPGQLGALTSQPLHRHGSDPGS

Structure (SMILES)	hERG current change (%, negative = inhibition) at 1uM [%]
COc1ccc2cc(C#N)c(SCC(=O)NNC(=O)Cc3ccccc3)nc2c1	10.5
COC(=O)c1ccccc1NC(=O)c1ccccc1N(C)S(C)(=O)=O	7.1
O=c1[nH]c2ccc(S(=O)(=O)NCc3ccccc3)cc2[nH]1	17.5
COc1cccc(N(CC(=O)NCCSCc2ccc(C)cc2)S(C)(=O)=O)c1	13.5
CC1=C(C(=O)OCc2ccccc2)C(c2ccc(Br)cc2)NC(=O)N1CCCCCC(=O)O (centres unmarked)	10.6
CCc1ccc2[nH]c(=O)c(CN(CCN(CC)CC)C(=O)Nc3ccccc3OC)cc2c1	-50.7
COC(=O)c1cnc(Nc2cccc(C(F)(F)F)c2)c([N+](=O)[O-])c1	0.104
COC(=O)C1=C(C)N(c2ccc(F)c(Cl)c2)C(=O)C1	-1.07
Cc1ccc(-c2n[nH]c(=O)c3ccccc23)cc1S(=O)(=O)NCCO	-1.72
COc1ccc(C(=O)CSc2nccn2C)c(OC)c1	7
CC(C)Cn1c(C(C)NC(=O)Cc2ccccc2)nc2ccccc21 (centres unmarked)	9.17
COc1ccc(-c2nnc(SCC(=O)N3CCC(Cc4ccccc4)CC3)o2)cc1OC	-3.62
C=CCOc1ccccc1NC(=O)CN1C(=O)CNC1=O	18.7
Cc1nnc(NC(=O)c2ccc(S(=O)(=O)N3CCOCC3)cc2)s1	6.78
O=C(C1=C[C@@H]2[C@H]3C(=O)N(c4ccc(Cl)cc4)C(=O)[C@H]3[C@@H](C(=O)c3ccc(Cl)cc3)N2C=C1)c1ccccc1	15.2
O=c1nc(/C=C/c2ccc(-c3ccc(F)cc3)o2)cc(C(F)(F)F)[nH]1	13
CN1CCN(CC(=O)Nc2cc(N(C)C)nc3ccccc23)CC1.Cl	16.1
C=CCc1cccc2cc(C(=O)Nc3ccc(F)cc3)c(=O)oc12	6.28
O=C(NCc1ccc(Cl)cc1)c1ncn[nH]1	6.12
O=C(Nc1cccc(NC(=O)c2cccnc2)c1)c1ccccc1	5.98
COc1ccc(/C=C(/CC(=O)Nc2ccc(C)cc2)c2nc3ccccc3s2)cc1	10.4
Oc1ccc(C(c2nnnn2CCc2ccccc2)N2CCN(c3nc4ccccc4s3)CC2)cc1 (centres unmarked)	10.7

Structure (SMILES)	hERG current change (%, negative = inhibition) at 1uM [%]
CCOC(=O)c1ccc(NC(=S)Nc2ccc(Cl)cn2)cc1	6.65
CCOC(=O)C1CCCN(Cc2nc(CC3CC3)no2)C1 (centres unmarked)	12.5
COc1cc(C(=O)Nc2nnc(Cc3ccccc3)s2)cc(OC)c1OC	8.52
Cc1cc2ncc(-c3ccccc3)nc2cc1C	11.4
C=CCn1c(O)c(C(CC)=Nc2ccc(N(C)C)cc2)c(=O)[nH]c1=O	16.6
CSc1nc(N2CCOCC2)c2c(c1C#N)CCCCC2	4.33
COc1cc2cnc(-c3ccccc3)c(-c3ccc(C(F)(F)F)cc3)c2cc1OC	14.9
Cc1ccc(S(=O)(=O)N2CCC(C(=O)NCCC3=CCCCC3)CC2)c(C)c1	2.13
O=C(c1ccc(NC(=O)C(c2ccccc2)c2ccccc2)cc1)c1ccc(C(=O)O)c(C(=O)O)c1	13.8
COC(=O)c1ccc(NC(=O)CSc2nnc(C3CC3)n2C)cc1	6.77
CCOC(=O)N1C(=O)[C@@](CC)(c2ccccc2)N1C(=O)OCC	11.1
C#CCOCCOCCOCCNc1nc(N2CCN(C(=O)[C@H]([C@@H](C)CC)n3cc([C@@H](N)CO)nn3)CC2)nc(N2CCN(C(=O)[C@H](Cc3ccc(O)cc3)n3cc([C@@H](N)CC(C)C)nn3)CC2)n1.Cl	-0.522
CN(C)c1ccc(NC(=O)CN2C(=O)c3ccccc3C2=O)cc1	14.5
Cc1[nH]c2ccccc2c1CN1CCC(Cc2ccccc2)CC1.O=C(O)C(=O)O	-19.4
CCCn1c(=O)n(C)c(=O)c2c(SCC(=O)Nc3cc(C)on3)nc(C(C)(C)C)nc21	4.48
O=C(O)CC(NC(=O)Cc1ccc(Cl)cc1)c1ccco1 (centres unmarked)	1.41
CC1(OC(=O)c2ccc(Cl)nc2)C(=O)C=C2C=C(c3ccc(C#N)cc3)OC=C2C1=O (centres unmarked)	8.68
O=C(/C=C/c1ccc2c(c1)OCO2)NCc1ccc(F)cc1	11.2
COc1cc(NC(=O)COc2ccccc2C)ccc1NC(=O)c1ccco1	12.3
CCN(CC)CCCN=C(C)c1c(O)n(-c2ccccc2)c(=O)[nH]c1=O	-16.4
COc1ccccc1CNCC(=O)Nc1cc(S(=O)(=O)N2CCCCCC2)ccc1Cl	8.12
COc1ccccc1N1CCN(C(=O)c2sc3ncn(CC(=O)N4CCC(C)CC4)c(=O)c3c2C)CC1	7.63

Structure (SMILES)	hERG current change (%, negative = inhibition) at 1uM [%]
N/C(=N\OC(=O)CCCOc1ccccc1)c1ccc(Br)cc1	15.2
NS(=O)(=O)c1ccc(NC(=O)Cn2ncc3c2-c2ccccc2OC3)cc1	11.3
Cc1ccc(-c2noc(C3CCCN(C(=O)c4ccccc4Br)C3)n2)o1 (centres unmarked)	-3.01
COc1ccc(-c2ccc3c(N)c(C(=O)c4ccc(OC)c(OC)c4)sc3n2)cc1	9.42
CCCN(c1ccc(OCC)cc1)S(=O)(=O)c1ccc2c(c1)CCN2C(=O)CCC(=O)O	12.5
O=C(COC(=O)Cc1c[nH]c2ccccc12)NC1CCS(=O)(=O)C1 (centres unmarked)	15.1
Cc1cc(NC(=O)C2CCCN2C(=O)Nc2c(C)cccc2C)ccc1-n1cnnn1 (centres unmarked)	13.2
COc1cccc(-c2csc(NC(=O)Oc3ccccc3)n2)c1	-2.87
COc1ccccc1NS(=O)(=O)c1cc(NC(=O)c2cccs2)ccc1N1CCOCC1	6.6
Cc1ccccc1N1CC(C(=O)Nc2ccc3c(c2)OCO3)CC1=O (centres unmarked)	7.11
CCOc1ccc(NC(C)C(=O)N/N=C/c2cccs2)cc1 (centres unmarked)	11.1
CC(C)CCN(C(=O)Nc1ccc(Cl)cc1)C1CCN(C(C)C)CC1	-57.6
O=C(c1ccccc1)c1cccc(C(=O)c2ccccc2)c1	4.21
CC(=O)Nc1ccc(S(=O)(=O)NCc2nc(-c3ccc(C)cc3)no2)cc1	23.3
COCc1nn2c(N)c(-c3ccccc3)cnc2c1-c1ccccc1	16.4
Cc1ccc(C(=O)Nc2nccc(-c3cccs3)n2)cc1	-26
COc1ccc(-c2ccnc(SCC(=O)Nc3ccccn3)n2)cc1	7.35
COc1ccc(-c2nc(CS(=O)CC(=O)N3CCN(C)CC3)c(C)o2)cc1OC (centres unmarked)	7.32
Cc1cc(OCC(=O)N2CCC(O)CC2)c2c(C)cc(=O)oc2c1	15.5
COCCCn1c(N)c(C(=O)OCCOC)c2nc3ccccc3nc21	-6.84
Cc1cccc(-c2nnc(SCc3ccccc3)o2)c1	9.96
Cc1cccc(C(=O)NNC(=O)c2c(O)c3ccccc3n(C)c2=O)c1	12.6

Structure (SMILES)	hERG current change (%, negative = inhibition) at 1uM [%]
CSc1ccc(S(=O)(=O)N2CCC(C(=O)NCC3CCCO3)CC2)cc1 (centres unmarked)	10.3
CN(Cc1ccccc1)C(=O)CN(c1ccccc1Cl)S(C)(=O)=O	17.3
O=C(NCc1ccco1)c1sc2cccc(F)c2c1Cl	-0.443
O=C(NC1CCN(C(=S)Nc2ccc(F)cc2)CC1)c1ccco1	4.6
COc1cc2c(cc1OC)C(C)N(S(=O)(=O)c1cn(C)cn1)CC2 (centres unmarked)	9.25
Cc1ccc(Nc2ncnc3nc[nH]c23)cc1Cl	15.1
O=c1[nH]n2c(=O)c3c([nH]c2c1N=Nc1ccccc1)CCC3	13.5
O=C(Cn1ccc2ccccc2c1=O)NCC1COc2ccccc2O1 (centres unmarked)	-0.756
O=S1(=O)CCN(C(CCO)c2cccc(C(F)(F)F)c2)CC1 (centres unmarked)	-15.2
COc1ccccc1CC(=O)N1CCCc2cc(C)ccc21	14.5
CN(C)c1ccc(NC(=O)CN2C3CCCC2CC(NC(=O)c2ccccc2)C3)cc1 (centres unmarked)	-26.3
Br.O=C(CN1CCCCC1)c1ccc(OC(F)F)cc1	-63.4
O=C(/C=C/c1ccc2c(c1)OCO2)N1CCN(c2ccccc2F)CC1	11.2
O=C(CC1CCS(=O)(=O)C1)NC1CCCCC1 (centres unmarked)	8.04
COc1ccc(C(=O)C[n+]2ccc(-c3nnc4n3CCCCC4)cc2)cc1.[Br-]	11.8
COC(=O)C1=C(C)N(Cc2ccco2)C(=O)N[C@@H]1c1ccc(Br)cc1	11.9
COc1ccccc1CC(=O)N1CCC(CCC(=O)NC2CC2)CC1	14.8
O=C(Cc1cccs1)Nc1ccc(-c2nnc(-c3ccco3)o2)cc1	3.6
COc1ccccc1NC(=O)CN1CCC(n2nnc3cc(F)ccc32)CC1	-12
CCOCCCNC(=O)Cn1cnc2sc(C)c(S(=O)(=O)N3CCN(c4ncccn4)CC3)c2c1=O	13.7
